# Source: the RNAGym collection of RNA variant scans (doi:10.1093/nar/gkz1192)
# Read counts are not given, so values of variants with three or more changes are uncertain.
# B1: CPEB3 Ribozyme (parent)
# chain: UAACAGGGGGCCACAGCAGAAGCGUUCACGUCGCAGCCCCUGUCAGAUUCUGGUGAAUCUGCGAAUUCUGCUGUAUAUCUC
# Variants of: B1
# Test: self-cleavage, relative activity (ratio to wild type); higher = more cleavage; in vitro, sequencing
# Summary of the method: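 CPEB3 self-cleaving ribozyme mutant libraries were made by rounds of error-prone PCR, barcoded, and transcribed in vitro with T7 RNA polymerase for 5 hours at 37°C. Cleavage occurred during transcription and a 15 min DNase I step before EDTA stop. RNAs were reverse transcribed with template switching and Illumina-sequenced, with DNA sequencing mapping barcodes to variants. Relative activity is the variant's cleaved/total read fraction divided by wild type's (minimum 5 reads), averaged across three batches.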
row,Variant,self-cleavage
1,A35C G55C G70C U78C C79U,0.14
2,A35C G73C U76A,1.23
3,A35C U41C U51A,1.02
4,A35C U41C U67C,0.21
5,A35C U41C U76A,0.82
6,A35C U43C A77U,0.56
7,A35C U48C A57C U58C,0.16
8,A35C U49C U74C U78C,0.27
9,A35C U51A G73U,1.38
10,A35C U51A U60C U72C,0.18
11,A35C U51C U54C C81U,0.84
12,A35C U54C U78C,0.73
13,A35C U66C U74C U80C,0.21
14,A35C U67A A77U,0.43
15,A35C U69C U80C,0.23
16,A35C U72A U74C,1.18
17,A35G A45C U48C U58C,0.12
18,A35G A45C U60G C71A,0.28
19,A35G A45C U67C U80C,0.19
20,A35G A45G A47G U74G,1.28
21,A35G A45G A47U,1.12

row,Variant,self-cleavage
1,A35G A45G A57G U69A U76C,1.03
2,A35G A45G A64U,0.93
3,A35G A45G C62G,0.33
4,A35G A45G G63U,1.14
5,A35G A45G U54C U69A,1.12
6,A35G A45G U58C,0.93
7,A35G A45G U58C U80C,1
8,A35G A45G U72C A75G,1.27
9,A35G A45U A47G U80G,0.85
10,A35G A45U G61A,1.13
11,A35G A45U U48C,0.4
12,A35G A45U U49C,0.28
13,A35G A45U U58C,0.59
14,A35G A47G A57C,1.05
15,A35G A47G G55U A75U,1.17
16,A35G A47G U51A,1.17
17,A35G A47G U60A A65G,0.71
18,A35G A47G U60G,0.89
19,A35G A47G U78A U80C,1.21
20,A35G A47U U54C U72C,0.98
21,A35G A47U U60C A65G,0.36

row,Variant,self-cleavage
1,A35G A47U U66C,0.8
2,A35G A47U U66C U76C,1.1
3,A35G A47U U72C,1.09
4,A35G A56C A77G,1.25
5,A35G A56G A57U U60C,0.54
6,A35G A56G A64G,1.01
7,A35G A56G U58A A65G U69C U76A,0.9
8,A35G A56G U60A,1.12
9,A35G A56G U60A U78C,0.94
10,A35G A56G U66C U69C U78A,0.77
11,A35G A56G U76A,1.28
12,A35G A56U C59U U60A U67C U76C,0.55
13,A35G A56U U58A,0.83
14,A35G A56U U67C,0.63
15,A35G A57C U80A,1.18
16,A35G A57G A65G A77U,1.08
17,A35G A57G U60A U74C,1.39
18,A35G A57G U69A,1.14
19,A35G A57U U69A,0.86
20,A35G A64G U69A,0.75
21,A35G A64G U72C,0.85

row,Variant,self-cleavage
1,A35G A64U U66C,0.54
2,A35G A64U U66C U74C U78C,0.6
3,A35G A64U U69C,0.55
4,A35G A64U U69C U72C,0.67
5,A35G A65G G73U U76C U80C,1.32
6,A35G A65G U66C U78C,0.47
7,A35G A65G U72A,0.78
8,A35G A65U A77G,0.96
9,A35G A65U U66C U67A U76A,0.66
10,A35G A65U U74C,1.06
11,A35G C37U U41C G42U U51A,0.28
12,A35G C37U U41C U54A,1.3
13,A35G C37U U49C U54C,1.15
14,A35G C38A A47U C71A,0.13
15,A35G C38U U58C U69A A77G,0.7
16,A35G C39A A45C U60A U78C,0.43
17,A35G C39U U54C G70C,0.21
18,A35G C39U U54C U66A U80C,0.96
19,A35G C40A U48C U72C,0.34
20,A35G C40A U67C,0.31
